Laboratory results published in PubChem BioAssay AID1768 (National Center for Advancing Translational Sciences (NCATS), 2009).
The campaign covered roughly 270,000 compounds. About 620 (0.23%) were called active. The shares of active, inactive and inconclusive entries below differ from those in the screen. Calls come from the whole dose curve; as a rule, active = well fitted inhibition curve with a large enough effect in the polarisation, with a control signal flat (not every such curve was filed as active); inconclusive = small, poorly fitted or top-dose-only effect, or effect the other way, or a change in a side signal; inactive = no such curve, though single readings can be large or run the other way; the % refers to the polarisation. Potencies beside an inconclusive call are fits to weak or partial responses and may not hold up. A note “side channel” means that the fit belongs to a control or component signal, not to the main read-out.

These compounds were tested against Menin (Homo sapiens) (UniProt O00255) (assay: qHTS Assay for Inhibitors Targeting the Menin-MLL Interaction in MLL Related Leukemias: Competition With Texas Red Labeled MLL-derived Mutant Peptide). Conditions: fluorescence polarization; FP activity change, negative = inhibition: at 61.6 µM (top of the series).
Potency is the fitted concentration of half-maximal effect; tags give direction and shape of the fitted curve or compound fluorescence and quenching.
Throughout, for FP activity change, negative = inhibition: % of control where 0% means no effect.

Chain of UniProt O00255 (O00255 whole entry, looked up): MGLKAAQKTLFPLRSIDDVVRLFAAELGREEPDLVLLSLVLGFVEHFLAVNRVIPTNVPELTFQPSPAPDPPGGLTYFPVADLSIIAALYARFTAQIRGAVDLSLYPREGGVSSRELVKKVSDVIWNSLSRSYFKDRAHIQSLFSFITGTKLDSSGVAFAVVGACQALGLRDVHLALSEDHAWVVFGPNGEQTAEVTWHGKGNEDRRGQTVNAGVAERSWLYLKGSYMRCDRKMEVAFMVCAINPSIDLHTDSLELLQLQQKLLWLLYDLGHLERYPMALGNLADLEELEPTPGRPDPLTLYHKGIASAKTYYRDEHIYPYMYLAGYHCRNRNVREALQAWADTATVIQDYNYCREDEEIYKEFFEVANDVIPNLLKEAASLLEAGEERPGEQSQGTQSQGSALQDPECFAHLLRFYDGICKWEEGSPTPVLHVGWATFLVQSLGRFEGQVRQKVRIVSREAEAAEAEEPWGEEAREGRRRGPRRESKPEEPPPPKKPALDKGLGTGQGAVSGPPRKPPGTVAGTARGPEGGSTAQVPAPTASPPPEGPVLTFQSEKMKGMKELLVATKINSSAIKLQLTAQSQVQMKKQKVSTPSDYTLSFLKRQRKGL

Potency, inconclusive:
O=[N+]([O-])c1ccc(N2CCc3ccccc3C2)cc1 39.8 µM [inhibitor, single point]
O=C(CCCOc1ccc(Cl)cc1Cl)Nc1cccnc1 1.26 µM [quencher, side channel, full curve, poor fit]
O=C(O)c1cccc(N2C(=O)c3cc([N+](=O)[O-])cc4cc([N+](=O)[O-])cc(c34)C2=O)c1 2.51 µM [fluorescent, side channel, full curve]
CC(C)Cc1n[nH]c(=O)c2c1nnn2Cc1ccccc1F 17.8 µM [inhibitor, partial curve]
O=C1c2cccc3cccc(c23)C(=O)N1c1ccccc1Cl 39.8 µM [fluorescent, side channel, single point]
CC(C)(C)c1ccc(C(CC(=O)O)NC(=O)C23CC4CC(CC(C4)C2)C3)cc1 (stereo not given) 22.4 µM [inhibitor, partial curve]
Cc1ccc2c(c1)C(c1ccccc1)N(C(=O)c1ccccc1)CC(=O)N2 (stereo not given) 39.8 µM [inhibitor, single point]
Cc1ccc2c(c1)Sc1ccccc1CC2=O 15.8 µM [inhibitor, partial curve]
CC1Cc2ccccc2N1CC(=O)NC(=O)NCc1ccco1 (stereo not given) 39.8 µM [quencher, side channel, single point]
O=c1oc2c3c4c(cc2s1)CCCN4CCC3 14.1 µM [quencher, side channel, single point]
COc1ccc(/C=C2\CCn3c2nc2cc(C(=O)O)ccc2c3=O)cc1O 25.1 µM [inhibitor, partial curve]
C=CCSc1nc2c(c(=O)[nH]c(=O)n2C)n1C(C)C 39.8 µM [inhibitor, single point]
Fc1cccc(Cl)c1CN1CCN(c2nc3ccccc3s2)CC1 25.1 µM [fluorescent, side channel, single point]
O=c1c2c(-c3ccc(Cl)cc3)csc2ncn1/N=C/c1cccc([N+](=O)[O-])c1O 17.8 µM [quencher, side channel, partial curve]
CCOC(=O)c1nn(-c2ccccc2C)c2nc(-c3ccc(C)cc3)c(C#N)c(=O)n12 3.98 µM [fluorescent, side channel, full curve, poor fit]
CCN(CC)c1ccc(-c2sc(Nc3ccccc3)n[n+]2-c2ccc(F)cc2)cc1 5.01 µM [fluorescent, side channel, partial curve]
O=C(Nc1nc(-c2ccccc2)cs1)C1CCCN(S(=O)(=O)c2ccccc2)C1 (stereo not given) 8.91 µM [inhibitor, full curve, poor fit]
CSc1nc2ccc(NS(=O)(=O)c3ccc(Cl)s3)cc2s1 25.1 µM [quencher, side channel, partial curve]
CCc1ccc(OCC(=O)NC(NC(=S)Nc2ccc(C)cc2C)C(Cl)(Cl)Cl)cc1 (stereo not given) 28.2 µM [inhibitor, single point]
Nc1ccc(C(=O)Nc2nc3ccccc3s2)cc1 12.6 µM [quencher, side channel, partial curve]
O=C(Nc1cccnc1)Nc1ccc(F)c(Cl)c1 12.6 µM [quencher, side channel, partial curve, poor fit]
S=c1[nH]nc(Cc2sc(-c3ccccc3)nc2-c2ccccc2)o1 20 µM [quencher, side channel, single point]
CCc1ccc(CN(C)C(=O)CCc2nc3ccccc3n(-c3ccc(OC)cc3)c2=O)cc1 10 µM [fluorescent, side channel, partial curve]
COc1cc(/C=N/NC(=O)c2cccnc2)ccc1OS(=O)(=O)c1cc(C)ccc1C 25.1 µM [quencher, side channel, partial curve]
O=C(CCn1cccc1)Nc1cccc(F)c1 4.47 µM [quencher, side channel, single point]
COCCNc1nc(-c2ccoc2)nc2ccccc12 44.7 µM [inhibitor, single point]
O=C1c2cccc3c([N+](=O)[O-])ccc(c23)C(=O)N1c1ccccn1 39.8 µM [quencher, side channel, single point]
COc1ccc(NC(=O)Nc2ccc([N+](=O)[O-])cc2)cn1 22.4 µM [quencher, side channel, partial curve]
CN1c2ccccc2N(C)C1(C)c1cccc2ccccc12 25.1 µM [fluorescent, side channel, partial curve]
CCCNC(=O)OC[C@H]1O[C@H](CCO/N=C/C[C@@H]2C=C[C@H](OC(C)=O)[C@@H](COC(C)=O)O2)C=C[C@@H]1Oc1ccc(OC)cc1 10 µM [fluorescent, side channel, partial curve]
COc1cccc(Nc2nc3ccc(OC)cc3s2)c1 14.1 µM [quencher, side channel, partial curve]
Cn1c(NN)nc2c1c(=O)n(Cc1ccccc1)c(=O)n2C 10 µM [quencher, side channel, partial curve]
COc1cc(NC(=O)Nc2cccc(Cl)c2)c(OC)cc1NC(=O)CN1CCCCC1 8.91 µM [quencher, side channel, partial curve]
O=C(Nc1ccccc1)c1cc2ccccc2c(=O)s1 10 µM [quencher, side channel, partial curve]
O=C1CN(C(=O)c2c(F)cccc2F)C(c2ccccc2)c2cc(Br)ccc2N1 (stereo not given) 8.91 µM [inhibitor, single point]
CC(C)(C)c1cc(C(=O)NCCN2CCCC2)cc(C(C)(C)C)c1 31.6 µM [fluorescent, side channel, single point]
Cc1cccc(N2CCN(c3ccc(N4C(=O)CCCC4=O)cc3[N+](=O)[O-])CC2C)c1 (stereo not given) 11.2 µM [quencher, side channel, partial curve]
CCC(=O)N1CCN(c2ccc(NC(=O)COc3ccc(CC)cc3)cc2)CC1 25.1 µM [inhibitor, single point]
Cc1cc2c(cc1S(=O)(=O)CCC(=O)N(C)C1CCCCC1)OCC(=O)N2 28.2 µM [inhibitor, single point]
COc1ccccc1OCCN1C(=O)S/C(=C\c2ccco2)C1=O 39.8 µM [quencher, side channel, single point]
CCOc1cc(/C=C/c2ccc3cccc([N+](=O)[O-])c3n2)ccc1O 39.8 µM [quencher, side channel, single point]
O=C1C2=C(C(=O)c3ccccc31)C1O[C@](c3ccsc3)(Cc3ccccc31)O2 3.16 µM [quencher, side channel, partial curve]
N#CC1=C(N)SC(N)=C(C#N)C1c1ccc([N+](=O)[O-])cc1 28.2 µM [quencher, side channel, single point]
Cc1cccc(NC(=O)CC2Nc3cccc4cccc(c34)NC2=O)c1 (stereo not given) 14.1 µM [quencher, side channel, partial curve]
Cc1cc2nc(CS)[nH]c2cc1C 17.8 µM [quencher, side channel, partial curve]
Cc1[nH]c2ccccc2c1C(=O)COC(=O)c1c(-c2ccccc2)noc1C 3.55 µM [quencher, side channel, full curve]
O=C(Cc1ccc(Cl)cc1)c1c(O)cc(O)cc1O 14.1 µM [quencher, side channel, partial curve]
O=C(NC(=O)c1ccccc1)Nc1ccccc1 31.6 µM [inhibitor, partial curve, poor fit]
COc1ccc(Nc2nc(-c3ccc4c(c3)NC(=O)CO4)cs2)cc1 14.1 µM [quencher, side channel, partial curve]
O=C(NC(NC(=S)Nc1cc(Cl)ccc1Cl)C(Cl)(Cl)Cl)c1ccco1 (stereo not given) 17.8 µM [quencher, side channel, partial curve]
O=C(NCc1ccccc1)c1ccc(CSc2ccccc2)o1 35.5 µM [fluorescent, side channel, single point]

FP activity change, negative = inhibition, inactive:
CC(=O)OC[C@@H]1O[C@H](CCO/N=C(\C)CCC(=O)OC[C@@H]2O[C@H](C#Cc3ccccc3)C=C[C@@H]2Oc2ccc(C)cc2)C=C[C@@H]1OC(C)=O -13.2% [at 11.7 µM]
Nc1cccc2c1C(=O)N(CC(=O)NC13CC4CC(CC(C4)C1)C3)C2=O 4.47%
O=C(CSc1nc2ccccc2[nH]1)N1CCN(c2ccc(F)cc2)CC1 0.532%
COc1ccc(C2c3c(oc4ccccc4c3=O)C(=O)N2c2ccccn2)cc1OC (stereo not given) 13.6%
